About 520 (0.14%) of roughly 360,000 compounds were called active. This list was built around the results that the source calls inconclusive (neither active nor inactive); the mix of calls is not that of the screen. The call rests on the fitted dose curve; in most records, active means well fitted inhibition curve with a large enough effect; inconclusive means small, poorly fitted or top-dose-only effect; inactive means no such curve, though single readings can be large or run the other way. No potency is given beside an inconclusive call; the fits are too rough.
The compounds below were run against Rap guanine nucleotide exchange factor 3 (Homo sapiens) (UniProt O95398) (assay: qHTS for Antagonist of cAMP-regulated guanine nucleotide exchange factor 3 (EPAC1): primary screen). Conditions: EPAC1 GEF assay, Rap1b-BODIPY-GDP exchange fluorescence; activity change, negative = inhibition: at 115 µM (top of the series).
Further: nearly all actives have a fitted effect of over 50% in size.
Potency means the concentration at half of the fitted maximal effect; tags describe the fitted curve by direction and shape.
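Wherever activity change, negative = inhibition is given: plate controls were vehicle for no effect and positive control for full effect.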

Sequence of UniProt O95398 (O95398 whole entry, looked up): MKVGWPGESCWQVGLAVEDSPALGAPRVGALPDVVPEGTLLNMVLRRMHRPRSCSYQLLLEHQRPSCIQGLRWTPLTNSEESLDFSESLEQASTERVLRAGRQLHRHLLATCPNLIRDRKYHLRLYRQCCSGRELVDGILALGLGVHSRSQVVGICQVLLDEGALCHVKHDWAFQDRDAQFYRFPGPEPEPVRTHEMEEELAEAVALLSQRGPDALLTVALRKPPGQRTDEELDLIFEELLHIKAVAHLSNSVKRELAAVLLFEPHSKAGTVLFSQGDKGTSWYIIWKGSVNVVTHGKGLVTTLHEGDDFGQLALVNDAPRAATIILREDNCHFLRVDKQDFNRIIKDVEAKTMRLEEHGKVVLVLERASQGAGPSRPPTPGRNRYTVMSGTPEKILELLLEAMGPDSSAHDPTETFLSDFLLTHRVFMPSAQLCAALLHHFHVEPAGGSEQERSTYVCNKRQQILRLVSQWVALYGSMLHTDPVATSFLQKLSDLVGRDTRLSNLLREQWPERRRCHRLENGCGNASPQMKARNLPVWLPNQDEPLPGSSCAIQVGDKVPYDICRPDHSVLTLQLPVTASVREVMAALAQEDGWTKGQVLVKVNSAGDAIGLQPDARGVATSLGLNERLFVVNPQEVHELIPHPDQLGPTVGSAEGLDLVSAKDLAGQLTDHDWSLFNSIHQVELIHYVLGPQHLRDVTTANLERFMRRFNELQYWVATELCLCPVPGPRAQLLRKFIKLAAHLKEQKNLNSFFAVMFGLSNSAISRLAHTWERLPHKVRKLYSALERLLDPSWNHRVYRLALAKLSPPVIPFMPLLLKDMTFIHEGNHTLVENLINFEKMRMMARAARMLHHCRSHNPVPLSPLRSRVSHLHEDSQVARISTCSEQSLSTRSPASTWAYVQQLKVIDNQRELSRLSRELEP

Q: For `COC(=O)[C@@]1(Cc2ccc(F)cc2)[C@H]2c3cc(C(=O)N4CCCC4)n(Cc4ccc(C)o4)c3C[C@H]2CN1C(=O)c1ccccc1`, which Potency is on record?
A: inactive

Q: Which Potency does the source give for `COc1cccc(/C(O)=C/c2nc3ccc(C(=O)NCCc4cccc(C)c4)cc3[nH]c2=O)c1` here?
A: inactive

Q: `CC1CCN(S(=O)(=O)N2CCC(C(=O)NCc3ccc(F)cc3Cl)CC2)CC1` was tested. Which Potency did it give?
A: inactive

Q: Which Potency does the source give for `CNc1ccc(C2(O)C(=O)c3ccccc3C2=O)cc1` here?
A: inactive

Q: How did the Potency turn out when `O=C(Cn1ncc(Cl)c(Cl)c1=O)NC(=O)NC1CCCCC1` was run?
A: inconclusive [inhibitor, partial curve]

Q: For `CC(/C=N/n1c(-c2ccc(Cl)cc2)n[nH]c1=S)=C\c1ccco1`, which Potency is on record?
A: inconclusive [inhibitor, single point]

Q: For `CC(C)OC(=O)CC(=O)CC(O)c1cccc([N+](=O)[O-])c1` (stereo unspecified), which Potency is on record?
A: inactive

Q: With `O=C1CN(C(=S)Nc2ccc(OC(F)F)cc2)CCN1` as the compound, how does the Potency read?
A: inconclusive [inhibitor, full curve, poor fit]

Q: `Cc1ccc(Nc2nc(-c3ccc(O)c(O)c3)cs2)nc1` was tested. Which Potency did it give?
A: inconclusive [inhibitor, partial curve]

Q: Which Potency does the source give for `Nc1nc(SCc2ccccc2)sc1C(=O)N1CCCCC1` here?
A: inactive

Q: `Cc1cccn2c(=O)c3cc(C#N)c(=NC(=O)c4cccs4)n(CCCOC(C)C)c3nc12` was tested. Which activity change, negative = inhibition did it give?
A: inconclusive: -0.425% [inhibitor]

Q: Which Potency does the source give for `COc1ccc([N+](=O)[O-])cc1N(CC(O)CN(CC(C)C)CC(C)C)S(=O)(=O)c1ccc(C)cc1` (stereo unspecified) here?
A: inconclusive [inhibitor, partial curve, poor fit]

Q: Which Potency does the source give for `Cc1c(C(=O)NCc2ccccc2C(F)(F)F)sc(=O)n1Cc1ccc2c(c1)OCO2` here?
A: inconclusive [inhibitor, single point]

Q: With `O=C1/C(=C\c2cccnc2)Sc2ccccc21` as the compound, how does the Potency read?
A: inconclusive [inhibitor, partial curve, poor fit]

Q: With `O=C(CC1CCC1)NC(c1ccccc1)c1ccccc1` as the compound, how does the Potency read?
A: inconclusive [inhibitor, single point]

Q: How did the Potency turn out when `Cc1ccc(OCc2ccc(C(=O)NN)o2)c([N+](=O)[O-])c1` was run?
A: inconclusive [inhibitor, single point]

Q: Which Potency does the source give for `O=C(O)c1cc(O)c2c(c1)C(=O)c1cc(O)cc(O)c1C2=O` here?
A: inconclusive [inhibitor, partial curve, poor fit]

Q: For `CC(NC(=O)c1ccccc1F)c1nnc(SCC(=O)Nc2nccs2)n1C` (stereo unspecified), which Potency is on record?
A: inconclusive [inhibitor, single point]

Q: With `C=CCOC(=O)C1=C(C)NC(SC)=C(C#N)C1c1ccc(OCC)cc1` (stereo unspecified) as the compound, how does the Potency read?
A: inconclusive [inhibitor, full curve, poor fit]

Q: With `CCOc1ncccc1C(=O)OCc1c(F)cccc1Cl` as the compound, how does the Potency read?
A: inconclusive [inhibitor, partial curve]

Q: For `Cc1ccc(NC(=O)CCN2C(=O)c3ccccc3Sc3ncccc32)cc1`, which Potency is on record?
A: inconclusive [inhibitor, partial curve]

Q: How did the activity change, negative = inhibition turn out when `CCOC(=O)[C@H]1[C@H]2COc3ccc(OC)cc3[C@@H]2N2C(=O)[C@H](C)NC(=O)[C@@]12C` was run?
A: inconclusive: 7.26% [inhibitor]

Q: How did the Potency turn out when `Cc1ccc(C)c(OCc2cc(C(=O)N3CCN(c4ccccc4)CC3)no2)c1` was run?
A: inactive

Q: Which Potency does the source give for `Cc1cccc(-n2cnc(C(=O)N/N=C\c3ccc(Br)cc3)c2)n1` here?
A: inconclusive [inhibitor, full curve, poor fit]

Q: `O=C(Nc1ccccc1Br)c1ccc(OC(=S)N2CCOCC2)cc1` was tested. Which Potency did it give?
A: inactive

Q: With `Cc1cc(C)c2nc(NC(=O)c3cc(C)on3)sc2c1` as the compound, how does the Potency read?
A: inactive

Q: For `COCCNc1nc2cc(-c3ccccc3)sc2c(=O)n1C`, which Potency is on record?
A: inconclusive [inhibitor, full curve]

Q: For `CCC(C)(C)NC(=O)C(c1ccccn1)N(C(=O)c1csnn1)C1CCCCC1` (stereo unspecified), which Potency is on record?
A: inconclusive [inhibitor, partial curve, poor fit]

Q: Which Potency does the source give for `Cc1[nH]n(-c2ccccc2)c(=O)c1/C=N/Nc1nncc(-c2ccccc2)n1` here?
A: inactive

Q: How did the Potency turn out when `CNC(=O)COC(=O)c1cc(F)c(F)cc1Cl` was run?
A: inactive

Q: With `O=C1OCCN1CCNCc1cn(-c2ccc(F)cc2)nc1-c1ccccc1Cl` as the compound, how does the Potency read?
A: inconclusive [inhibitor, partial curve, poor fit]

Q: `O=C(/C=N/O)NCCCN1CCOCC1` was tested. Which Potency did it give?
A: inconclusive [inhibitor, single point]

Q: With `COc1cccc(OCC(O)CNC(=O)c2oc3c(C)c(C)ccc3c2C)c1` (stereo unspecified) as the compound, how does the Potency read?
A: inconclusive [inhibitor, single point]

Q: For `Cc1c(NC(=O)c2ccccc2NC(=O)c2ccccc2)cccc1C(=O)O`, which Potency is on record?
A: inconclusive [inhibitor, full curve]

Q: For `COc1ccccc1NCC(=O)c1ccc(Cl)cc1`, which Potency is on record?
A: inactive

Q: Which activity change, negative = inhibition does the source give for `Cc1cccc(-c2cccc(NC(=O)C3CCCN(Cc4cccnc4)C3)c2)c1` (stereo unspecified) here?
A: inconclusive: -16.3% [inhibitor]

Q: Which activity change, negative = inhibition does the source give for `CCN1CCN(C(c2ccc(F)cc2)c2nnnn2Cc2ccc3c(c2)OCO3)CC1` (stereo unspecified) here?
A: inconclusive: -31% [inhibitor]

Q: `COC(=O)C(=O)/C=C(\O)c1ccc(C)cc1` was tested. Which Potency did it give?
A: inconclusive [inhibitor, full curve]

Q: With `Cc1cccc(OCC(=O)Nc2cccc(C(=O)Nc3ccccc3C(=O)O)c2)c1` as the compound, how does the Potency read?
A: inconclusive [inhibitor, single point]

Q: Which Potency does the source give for `O=C(O)c1cccc(CN2C(=O)c3ccccc3C2=O)c1` here?
A: inactive

Q: How did the Potency turn out when `O=C(/C=C/Sc1ccc(C(F)(F)F)cn1)c1ccccc1` was run?
A: inactive

Q: Which Potency does the source give for `CCc1cc(=O)oc2c(C)c(OCC(=O)NCc3ccccn3)ccc12` here?
A: inconclusive [inhibitor, full curve, poor fit]

Q: For `CCCCCOc1ccc(CSc2ncn[nH]2)cc1`, which Potency is on record?
A: inactive

Q: For `Cc1ccc(F)cc1NC(=O)N1CCN(c2ccnc3cc(Cl)ccc23)CC1`, which Potency is on record?
A: inconclusive [inhibitor, single point]

Q: How did the Potency turn out when `CN(CC(=O)Nc1ccccc1Cl)C(=O)c1ccc(-c2cccc(C(F)(F)F)c2)o1` was run?
A: inconclusive [inhibitor, partial curve, poor fit]

Q: `NS(=O)(=O)c1ccc(N/N=C/c2ccc(O)c(O)c2O)c([N+](=O)[O-])c1` was tested. Which Potency did it give?
A: inconclusive [inhibitor, partial curve]

Q: Which Potency does the source give for `Cc1cc2c(cc1C)-n1nnnc1C(N(C)CCc1ccccc1)C(=O)N2` (stereo unspecified) here?
A: inactive

Q: For `COC(=O)c1c(C)[nH]c(/C=N/Nc2ccccc2)c1C`, which activity change, negative = inhibition is on record?
A: inconclusive: -31.6% [inhibitor]

Q: `Cc1ccccc1OC(=O)c1cccc(S(=O)(=O)N2CCN(C)CC2)c1` was tested. Which Potency did it give?
A: inconclusive [inhibitor, partial curve]

Q: For `CCCCn1c(CCC(=O)O)nc2cc(S(=O)(=O)N(CC)CC)ccc21`, which Potency is on record?
A: inconclusive [inhibitor, single point]

Q: Which Potency does the source give for `O=C(NC1CCSc2ccccc21)c1cc(S(=O)(=O)N2CCOCC2)ccc1Cl` (stereo unspecified) here?
A: inconclusive [inhibitor, single point]

Q: Which Potency does the source give for `CN(C)CCCN(C(=O)c1ccc(S(=O)(=O)N2CCc3ccccc3C2)cc1)c1nc2ccc(F)cc2s1` here?
A: inconclusive [inhibitor, partial curve, poor fit]

Q: For `COc1ccc(/C=C/C(=O)Oc2ccc(C)c(C)c2)cc1OC`, which Potency is on record?
A: inconclusive [inhibitor, single point]

Q: Which Potency does the source give for `CC1CCN(c2ccc3nnc(CCC(=O)Nc4cccc(F)c4)n3n2)CC1` here?
A: inconclusive [inhibitor, full curve, poor fit]

Q: Which Potency does the source give for `COc1ccccc1CC(=O)NC(=O)c1ccccc1O` here?
A: inconclusive [inhibitor, partial curve]

Q: How did the Potency turn out when `CC1(c2ccccc2)NC(=O)N(CC(=O)Nc2cccc(/C=C/c3ccccn3)c2)C1=O` (stereo unspecified) was run?
A: inconclusive [inhibitor, partial curve, poor fit]

Q: How did the Potency turn out when `O=C(CSc1nc2ccc(Cl)cc2[nH]1)Nc1ccc2[nH]c(=O)[nH]c2c1` was run?
A: inconclusive [inhibitor, full curve, poor fit]

Q: `O=C(COc1ccccc1[N+](=O)[O-])N1CCCc2ccccc21` was tested. Which Potency did it give?
A: inconclusive [inhibitor, single point]

Q: For `CC(C)(C)n1nc2c(c1NC(=O)CCCc1ccccc1)CS(=O)C2` (stereo unspecified), which Potency is on record?
A: inconclusive [inhibitor, single point]

Q: How did the Potency turn out when `CCOC(=O)c1c(CNc2ccncc2)n(C)c2cc(Br)c(O)cc12` was run?
A: inconclusive [inhibitor, partial curve, poor fit]

Q: How did the Potency turn out when `Cc1ccc2nc(NC(=O)CSc3ncnc4c3oc3ccccc34)sc2c1` was run?
A: inconclusive [inhibitor, full curve, poor fit]

Q: For `COc1ccccc1NC(=O)Nc1nc(CC(=O)Nc2cc(F)ccc2F)cs1`, which Potency is on record?
A: inconclusive [inhibitor, single point]

Q: Which Potency does the source give for `Cc1ccc(O)c(N=Cc2cc(Cc3ccccc3)cc([N+](=O)[O-])c2O)c1` here?
A: inconclusive [inhibitor, partial curve]

Q: How did the Potency turn out when `O=C(CSc1n[nH]c(-c2cccs2)n1)N1CCCC1` was run?
A: inconclusive [inhibitor, single point]

Q: How did the Potency turn out when `CCC(C)(c1nnnn1-c1c(C)cccc1C)N(N=O)c1cccc(C(F)(F)F)c1` (stereo unspecified) was run?
A: inconclusive [inhibitor, full curve, poor fit]

Q: For `CCOc1ccc(-c2nc(N)ncc2Oc2ccc(OC)cc2)c(O)c1`, which Potency is on record?
A: inconclusive [inhibitor, partial curve]
